{"source": "paper PMC4336329", "about": "(PLoS ONE, 2015)", "note": "Hit rate of the full screen: of about 310,000 compounds, about 14,000 (4.5%) showed an effect of 50% or more. The effect is printed as a negative number. The list shows a part of the results.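 Note: peak tail current of the secondary pulse compared with the same well before compound.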", "data": [{"molecular_target": "human ether-à-go-go-related gene (hERG) potassium channel (human, UniProt Q12809)", "sequence (Q12809 whole entry, looked up)": "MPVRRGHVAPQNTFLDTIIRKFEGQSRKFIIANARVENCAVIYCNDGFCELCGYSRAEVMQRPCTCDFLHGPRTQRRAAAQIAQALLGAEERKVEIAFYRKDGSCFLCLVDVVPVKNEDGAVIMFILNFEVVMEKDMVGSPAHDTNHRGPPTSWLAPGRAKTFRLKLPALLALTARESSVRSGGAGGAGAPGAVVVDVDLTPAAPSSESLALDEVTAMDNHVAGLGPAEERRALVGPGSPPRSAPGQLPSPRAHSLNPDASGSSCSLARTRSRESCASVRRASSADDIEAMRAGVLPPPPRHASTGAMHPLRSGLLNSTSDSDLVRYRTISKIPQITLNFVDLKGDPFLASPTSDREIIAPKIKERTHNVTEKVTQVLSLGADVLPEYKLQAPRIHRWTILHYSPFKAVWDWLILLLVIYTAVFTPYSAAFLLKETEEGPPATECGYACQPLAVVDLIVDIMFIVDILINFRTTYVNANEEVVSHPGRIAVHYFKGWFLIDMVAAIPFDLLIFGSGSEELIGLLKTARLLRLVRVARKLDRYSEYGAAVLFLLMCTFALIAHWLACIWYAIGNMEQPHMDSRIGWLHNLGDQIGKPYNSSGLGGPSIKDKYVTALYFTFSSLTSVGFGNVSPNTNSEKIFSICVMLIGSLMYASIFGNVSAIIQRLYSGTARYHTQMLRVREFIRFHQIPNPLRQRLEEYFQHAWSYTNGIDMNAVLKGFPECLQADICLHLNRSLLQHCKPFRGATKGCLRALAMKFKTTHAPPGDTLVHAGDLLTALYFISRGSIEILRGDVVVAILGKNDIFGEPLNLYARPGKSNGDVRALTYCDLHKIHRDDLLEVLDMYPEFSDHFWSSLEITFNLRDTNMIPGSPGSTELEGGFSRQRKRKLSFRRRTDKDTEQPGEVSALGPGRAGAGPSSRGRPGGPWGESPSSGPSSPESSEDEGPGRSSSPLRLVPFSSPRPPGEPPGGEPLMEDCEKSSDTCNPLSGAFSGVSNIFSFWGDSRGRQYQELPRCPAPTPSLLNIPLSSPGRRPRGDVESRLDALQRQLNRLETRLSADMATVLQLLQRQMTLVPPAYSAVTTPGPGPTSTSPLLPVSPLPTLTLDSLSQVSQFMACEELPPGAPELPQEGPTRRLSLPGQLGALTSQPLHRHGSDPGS", "test": "primary screen, population patch clamp on CHO cells stably expressing hERG", "units": {"hERG current change (%, negative = inhibition) at 10uM": "%"}, "values": [{"smiles": "CC1CC(C)CN(C(=O)Cn2c(SCC(=O)N3CCc4ccccc4C3)nc3ccccc32)C1", "note": "(centres unmarked)", "hERG current change (%, negative = inhibition) at 10uM": -8.26}, {"smiles": "O=C1CCCN1CC(O)CS(=O)(=O)Cc1ccc(Cl)cc1Cl", "note": "(centres unmarked)", "hERG current change (%, negative = inhibition) at 10uM": -2.77}, {"smiles": "CCC(C)/C(C)=N/NC(=O)CNS(=O)(=O)c1ccc([N+](=O)[O-])cc1", "note": "(centres unmarked)", "hERG current change (%, negative = inhibition) at 10uM": -19.7}, {"smiles": "CCOC(=O)Nc1sc(C)nc1-c1ccccc1", "hERG current change (%, negative = inhibition) at 10uM": -3.71}, {"smiles": "CC(=O)C[C@H]1c2ccccc2S(=O)(=O)N1c1ccccc1", "hERG current change (%, negative = inhibition) at 10uM": 23}, {"smiles": "CN(CC(=O)Nc1c(Cl)cccc1Cl)C(=O)CCC1CCCC1", "hERG current change (%, negative = inhibition) at 10uM": 10.6}, {"smiles": "O=c1[nH]c(=S)[nH]c(O)c1N=Nc1ccc(S(=O)(=O)N2CCOCC2)cc1", "hERG current change (%, negative = inhibition) at 10uM": 16}, {"smiles": "CS(=O)(=O)c1ccc(Sc2nc3ccccc3[nH]2)c([N+](=O)[O-])c1", "hERG current change (%, negative = inhibition) at 10uM": -24.9}, {"smiles": "CCOC(=O)c1c(C)[nH]c(C)c1C(=O)COC(=O)/C=C/c1cccc(C(F)(F)F)c1", "hERG current change (%, negative = inhibition) at 10uM": 1.35}, {"smiles": "Cc1nn2cc(-c3ccccc3)nc2s1", "hERG current change (%, negative = inhibition) at 10uM": 4.23}, {"smiles": "O=C(Nc1ccc2c(c1)OCO2)c1cccc(S(=O)(=O)N2CCCC2)c1", "hERG current change (%, negative = inhibition) at 10uM": -15.9}, {"smiles": "O=C(O)c1ccc(-c2ccc(-c3ccccc3)cc2)s1", "hERG current change (%, negative = inhibition) at 10uM": 15.4}, {"smiles": "O=C(CCCOc1ccc(Br)cc1)NNC(=O)c1ccncc1", "hERG current change (%, negative = inhibition) at 10uM": -7.05}, {"smiles": "O=C1CC(c2ccccc2)n2nc(N3C(=O)CCC3=O)nc2N1", "note": "(centres unmarked)", "hERG current change (%, negative = inhibition) at 10uM": 4.14}, {"smiles": "Cc1cn(-c2cc(C(=O)Nc3ccc(C)c(NC(=O)N4CCNC4=O)c3)cc(C(F)(F)F)c2)cn1", "hERG current change (%, negative = inhibition) at 10uM": 10.6}, {"smiles": "CC(NC(=O)c1ccco1)C1CCCO1", "note": "(centres unmarked)", "hERG current change (%, negative = inhibition) at 10uM": -12.7}, {"smiles": "Cc1cc(C)nc(SCc2ccc(C(=O)N/N=C3\\CC(C)CC(C)(C)C3)cc2)n1", "note": "(centres unmarked)", "hERG current change (%, negative = inhibition) at 10uM": -16.7}, {"smiles": "CCOC(=O)c1cnc(SCC(=O)Nc2nnc(CC)s2)nc1N", "hERG current change (%, negative = inhibition) at 10uM": 8.46}, {"smiles": "COCCCNS(=O)(=O)c1ccc(SC)cc1", "hERG current change (%, negative = inhibition) at 10uM": 3.73}, {"smiles": "CCc1ccc(-c2nc(CS(=O)CC(=O)NCCN3CCCCCC3)c(C)o2)cc1", "note": "(centres unmarked)", "hERG current change (%, negative = inhibition) at 10uM": -17.2}, {"smiles": "COc1nc2ccc(C)cc2cc1-c1noc(-c2ccccc2)n1", "hERG current change (%, negative = inhibition) at 10uM": 1.72}, {"smiles": "Cl.OCCN(CC#CC(O)(c1ccccc1)c1cccc(F)c1)CCO", "note": "(centres unmarked)", "hERG current change (%, negative = inhibition) at 10uM": 1.86}, {"smiles": "COCc1cc(C)nc2sc(C(=O)NC3CCCCC3)c(N)c12", "hERG current change (%, negative = inhibition) at 10uM": -4.65}, {"smiles": "CCC(C)c1ccc(OCCCCN2CCOCC2)cc1", "note": "(centres unmarked)", "hERG current change (%, negative = inhibition) at 10uM": -36.8}, {"smiles": "Cc1ccc(C)c(NC(=O)CNC(=O)N2CC(=O)Nc3ccccc32)c1", "hERG current change (%, negative = inhibition) at 10uM": 15.3}, {"smiles": "COc1ccc(N2C(=O)C3CCCN3C2=O)cc1", "note": "(centres unmarked)", "hERG current change (%, negative = inhibition) at 10uM": -10.2}, {"smiles": "O=C(OCCN1CCOCC1)c1ccc(O)cc1", "hERG current change (%, negative = inhibition) at 10uM": 8.93}, {"smiles": "CCc1ccc(-c2ccc(SCC(=O)Nc3nnc(C)s3)nn2)cc1", "hERG current change (%, negative = inhibition) at 10uM": 12.7}, {"smiles": "O=C(COC(=O)c1ccccc1)Nc1ccc2[nH]c(=O)[nH]c2c1", "hERG current change (%, negative = inhibition) at 10uM": -6.15}, {"smiles": "CCOc1ccc(N2C(=O)CS/C2=C(\\C(Cl)=C(Cl)Cl)[N+](=O)[O-])cc1", "hERG current change (%, negative = inhibition) at 10uM": 2.32}, {"smiles": "COc1ccc(S(=O)(=O)N2CCOC2CNC(=O)C(=O)NCCc2ccccc2OC)cc1C", "note": "(centres unmarked)", "hERG current change (%, negative = inhibition) at 10uM": -9.22}, {"smiles": "O=C(CCc1ccccc1)NCCc1ccc(F)cc1", "hERG current change (%, negative = inhibition) at 10uM": -0.23}, {"smiles": "CC1CC(OCC(O)CN2CCOCC2)CC(C)(C)C1.Cl", "note": "(centres unmarked)", "hERG current change (%, negative = inhibition) at 10uM": 1.1}, {"smiles": "O=C(COC(=O)C1=COCCO1)Nc1cccc(S(=O)(=O)N2CCOCC2)c1", "hERG current change (%, negative = inhibition) at 10uM": 10.8}, {"smiles": "O=C(Nc1ccc(N2CCOCC2)c(Cl)c1)c1ccc(Br)o1", "hERG current change (%, negative = inhibition) at 10uM": -31.9}, {"smiles": "CCC(C(=O)Nc1ccc(S(=O)(=O)N2CCN(C)CC2)cc1)c1ccccc1", "note": "(centres unmarked)", "hERG current change (%, negative = inhibition) at 10uM": 10.4}, {"smiles": "C=CCn1c(C(C)(C)C)nc2ccccc21", "hERG current change (%, negative = inhibition) at 10uM": -11.2}, {"smiles": "COc1ccc(OC)c(S(=O)(=O)n2nc(C)cc2C)c1", "hERG current change (%, negative = inhibition) at 10uM": -15.4}, {"smiles": "Cc1nn(C(C)(C)C)c(OC(=O)c2ccc3c(c2)OCO3)c1Sc1ccccc1", "hERG current change (%, negative = inhibition) at 10uM": 8.59}, {"smiles": "COc1ccc(N2C(=O)C(CC(=O)O)S/C2=N\\N=C\\c2cccs2)cc1", "note": "(centres unmarked)", "hERG current change (%, negative = inhibition) at 10uM": 11.5}, {"smiles": "O=C(Cn1cc(C(F)(F)F)cc(Cl)c1=O)Nc1ccc(N2CCOCC2)cc1", "hERG current change (%, negative = inhibition) at 10uM": 15.5}, {"smiles": "COc1cc(C(=O)N/C(=C/c2ccc(F)cc2)C(=O)NC(C(=O)O)c2ccccc2)cc(OC)c1OC", "note": "(centres unmarked)", "hERG current change (%, negative = inhibition) at 10uM": 10.8}, {"smiles": "CCN(CC)c1ccc2cc(S(=O)(=O)c3ccc(C)cc3)c(=O)oc2c1", "hERG current change (%, negative = inhibition) at 10uM": 3.25}, {"smiles": "Cc1nc2c(c(=O)n1CCC(C)C)c1nc3ccccc3nc1n2CC1CCCO1", "note": "(centres unmarked)", "hERG current change (%, negative = inhibition) at 10uM": -38.3}]}]}
